# In all, about 110,000 compounds were measured (“z-score”: median about -0.1, highest 2% from about 2 on). Some of the results follow.
# Molecular target: Metabotropic glutamate receptor 8 (Rattus norvegicus) (UniProt P70579)
# Test: rat mGluR8 modulators via GIRK flux, primary screen, cell-based, thallium flux, HTS (AID 488969)
# Conditions: HEK293 rat mGluR8, GIRK (G protein-gated inwardly rectifying potassium channel) thallium flux, FluoZin2; at 10 µM; stronger effect = higher value; submaximal glutamate (EC20) added with thallium
# UniProt P70579, sequence (P70579 whole entry, looked up): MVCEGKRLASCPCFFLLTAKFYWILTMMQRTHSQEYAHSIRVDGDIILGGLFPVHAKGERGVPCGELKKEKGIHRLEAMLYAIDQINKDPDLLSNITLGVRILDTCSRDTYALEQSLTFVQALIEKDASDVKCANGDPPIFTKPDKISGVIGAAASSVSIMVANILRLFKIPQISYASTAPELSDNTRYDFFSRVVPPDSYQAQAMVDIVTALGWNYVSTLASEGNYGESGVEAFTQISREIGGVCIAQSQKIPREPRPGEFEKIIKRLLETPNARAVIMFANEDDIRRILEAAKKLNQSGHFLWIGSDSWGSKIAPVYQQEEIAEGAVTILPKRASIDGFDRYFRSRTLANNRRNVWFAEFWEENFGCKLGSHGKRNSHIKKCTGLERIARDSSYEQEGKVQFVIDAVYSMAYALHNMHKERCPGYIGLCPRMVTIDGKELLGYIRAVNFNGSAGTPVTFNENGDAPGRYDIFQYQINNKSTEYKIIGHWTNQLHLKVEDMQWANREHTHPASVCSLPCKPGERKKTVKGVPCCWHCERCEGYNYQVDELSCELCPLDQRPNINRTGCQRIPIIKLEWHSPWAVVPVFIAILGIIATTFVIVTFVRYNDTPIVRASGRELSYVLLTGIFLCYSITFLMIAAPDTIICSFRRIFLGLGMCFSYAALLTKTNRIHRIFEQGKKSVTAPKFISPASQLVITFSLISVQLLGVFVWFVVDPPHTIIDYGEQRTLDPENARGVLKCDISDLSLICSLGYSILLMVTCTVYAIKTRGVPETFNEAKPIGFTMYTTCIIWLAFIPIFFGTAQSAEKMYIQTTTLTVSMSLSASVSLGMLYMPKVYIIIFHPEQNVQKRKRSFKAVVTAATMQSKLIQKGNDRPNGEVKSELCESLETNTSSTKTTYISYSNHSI
row,Structure (SMILES),z-score
1,CCCn1c(C(Cc2ccccc2)NC(=O)COC)nc2ccccc21 (centres undefined),1.28
2,O=C(OC(C(=O)Nc1ccc(Cl)cc1C(F)(F)F)c1ccccc1)C1=COCCO1 (centres undefined),-0.376
3,O=C(NCc1ccc2c(c1)OCO2)c1cc2ccccc2oc1=O,0.0584
4,O=C(Cc1ccccc1)n1nc(-c2ccco2)nc1SCc1ccccc1,-0.336
5,CCCc1nnc(NC(=O)CCC(=O)N2CCN(C3c4ccccc4-c4ccccc43)CC2)s1,-0.25
6,Cc1ccc(S(=O)(=O)N2Cc3ccccc3CC2C(=O)Nn2cnnc2)cc1 (centres undefined),-0.114
7,CCC(CC)C(=O)Nc1cccc(C(=O)Nc2ccc(S(=O)(=O)Nc3ccc(C)cc3)cc2)c1,-0.0821
8,CC1CCN(S(=O)(=O)c2ccc(F)c(C(=O)O)c2)CC1,0.0267
9,O=C(Nc1cccc(F)c1)c1ccc(S(=O)(=O)NCC2CCCO2)cc1 (centres undefined),0.85
10,COc1cc2c(cc1NC(=S)Nc1cccc(C(F)(F)F)c1)oc1ccccc12,0.167
11,COc1cccc(C(c2nnnn2Cc2ccccc2)N2CCN(C(=O)c3ccco3)CC2)c1OC (centres undefined),-0.14
12,Cc1ccc(NC(=O)CS(=O)CC(=O)NCCCN(C)c2ccccc2)cc1 (centres undefined),0.0777
13,CC(C)Oc1ccc(C(=O)NC2(C(F)(F)F)N=C3SCCN3C2=O)cc1 (centres undefined),0.873
14,COc1cccc(-c2nc(NCCN3CCOCC3)c3ccccc3n2)c1O,-0.217
15,Cc1cc(C)c(S(=O)(=O)Nc2c(C)[nH]c(=O)[nH]c2=O)c(C)c1,-0.173
16,COC(=O)c1ccc(S(=O)(=O)N2C3CCC2CC(NC(=O)C2CC2)C3)cc1 (centres undefined),0.255
17,Cc1ccc(NC(=O)c2ccc(OC(=O)COc3ccc(Cl)c(C)c3)cc2)cc1,-0.0429
18,CCOC(=O)c1cccc(NC(=O)CNS(=O)(=O)c2cccs2)c1,-0.433
19,O=C(O)c1cc([N+](=O)[O-])ccc1N1CCCCC1,-0.123
20,Cc1ccc(-c2cc(C(=O)N/N=C/c3c(C)nn(C)c3C)c3ccccc3n2)c(C)c1,-1.46
21,O=C(NC(=S)NCC1CCCO1)c1ccc(Cl)cc1Cl (centres undefined),-0.218
22,COc1ccc(-c2csc(Nc3ccc(S(N)(=O)=O)cc3)n2)cc1,-0.213
23,COc1ccc2c(c1OC)C(=O)OC2Nc1ncc(Br)cc1Br (centres undefined),0.257
24,COc1cc(CC(=O)NCc2ccc3c(c2)OCO3)cc(OC)c1OC,-0.0634
25,O=C(Cc1ccc(Cl)cc1)NN1C(=O)c2ccccc2C1=O,-1.37
26,COc1cccc(C(=O)NCCC2=CCCCC2)c1OC,0.291
27,CCN1CCN(C(=O)c2ccccc2N(C)S(=O)(=O)c2ccc(C)cc2)CC1,0.202
28,C=CCN(CC=C)Cc1ccc(C(=O)OC)o1,-0.396
29,Cc1ccc(CNC(=O)COC(=O)CSc2cc(C)c(Br)cc2C)cc1,0.22
